PubChem BioAssay AID445 (National Center for Advancing Translational Sciences (NCATS), 2006)
Screen size: about 110,000 compounds; about 40 (0.04%) were called active. This list was built around the results that the source calls inconclusive (neither active nor inactive); the mix of calls is not that of the screen. Calls come from the whole dose curve; as a rule, active = well fitted curve in the direction sought with a large enough effect in the signal ratio (not every such curve was filed as active); inconclusive = small, poorly fitted or top-dose-only effect, or a change in a side signal; inactive = flat fitted curve, though single readings scatter; the % refers to the signal ratio. Where the call is inconclusive, the potency comes from a doubtful curve fit.

test: IkB Signaling; conditions: ABC-DLBCL IkBa-CBG/CBR dual luciferase ratio (green luciferase fused to IkBa over red control in OCI-Ly3 lymphoma cells), 4 h; IkBa stabilization activation: at 57.1 µM (top of the series), scaled: untreated 0%, proteasome inhibitor 100% unless noted;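 for IkBa stabilization activation: 0% = basal untreated cells and 100% = reference inhibitor full response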
Procedure, shortened: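 Luminescence ratio of IκBα-fused green versus native red beetle luciferase in OCI-Ly3 cells, 4 h post-doxycycline with compound; red signal alone, scaled from basal (0%) to zero light (-100%), flagged nonspecific or cytotoxic effects.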
Potency is the fitted concentration of half-maximal effect.

Row | SMILES | IkBa stabilization activation | Potency
1 | CCC(C)NC(=O)c1cnn(-c2ccc(Cl)cc2)c1C1CCN(C(=O)OC(C)(C)C)CC1 (configuration not stated) | inconclusive: 2.21% [signal inhibitor] | 
2 | Cc1ccn2c(Nc3ccc4c(c3)OCCO4)c(-c3ccc(Cl)s3)nc2c1 | inconclusive: 2.94% [signal inhibitor] | 
3 | CN(C1CCCCC1)S(=O)(=O)c1ccc2c(c1)c(=O)c(C(=O)NCCc1ccccc1)cn2C | inconclusive: 0.795% [signal inhibitor] | 
4 | Cc1cccc(NC(=O)C2CCCN(S(=O)(=O)c3cnc[nH]3)C2)c1C (configuration not stated) | inactive: -0.456% | 
5 | c1nc2sc3c(c2c2nnnn12)CCCC3 | inconclusive: 0.451% [signal inhibitor] | 
6 | COc1ccc(OCCCSc2ncccn2)cc1 | inactive: -2.06% | 
7 | CCCCCC(=O)N(O)C1CC(=O)N(c2ccccc2)C1=O (configuration not stated) | inconclusive: -5.47% [signal inhibitor] | 
8 | COc1ccc(C)cc1N(C)C(=O)c1c(C)oc2ncnc(N3CCOCC3)c12 | inconclusive: 3.5% [signal inhibitor] | 
9 | Cc1nn(C)c(C)c1S(=O)(=O)N1CCCC(C(=O)N2CCN(c3ccc(Cl)cc3)CC2)C1 (configuration not stated) | inconclusive: 8.05% [signal inhibitor] | 
10 | CN(c1ccc(Cl)cc1)S(=O)(=O)c1nnc(NC(=O)C2CCCCC2)s1 | inconclusive: 3.92% [signal inhibitor] | 
11 | COc1cc(C(=O)Oc2c(Sc3ccc(C)cc3)c(C)nn2-c2ccccc2)cc(OC)c1OC | inconclusive: 8.42% [signal inhibitor] | 
12 | CCOc1ccccc1NC(=O)c1c(NC(=O)c2ccccc2C)sc2c1CCC(C)C2 (configuration not stated) | inconclusive: 7% [signal inhibitor] | 
13 | COC(=O)c1c(C)sc(-c2c(-c3ccc4c(c3)OCCO4)[nH]c3c2c(=O)n(C)c(=O)n3C)c1O |  | inconclusive: 39.8 µM [rising, single point]
14 | COc1ccccc1-c1cc(C(=O)Nc2cc(OC)c(OC)c(OC)c2)no1 |  | inconclusive: 20 µM [signal inhibitor, single point]
15 | CCn1c2ccccc2c2nnc(SCN3C(=O)c4ccccc4C3=O)nc21 | inactive: 0.787% | 
16 | CCN(CC)CCCNC(=O)c1nn(C)c2c1CSc1ccccc1-2 | inconclusive: -1.4% [signal inhibitor] | 
17 | CCN(CC)c1ccc(C(=O)NCc2ccc3c(c2)CCN3C(=O)c2ccc(F)cc2)cc1 | inconclusive: 4.76% [signal inhibitor] | 
18 | O=C1N=C(N2CCOCC2)S/C1=C1\C(=O)N(Cc2ccccc2)c2ccc(Br)cc21 | inactive: 1.08% | 
19 | COc1ccc(C(C)=O)cc1CSc1nc(NCCc2ccccc2)c2ccccc2n1 | inconclusive: 0.364% [signal inhibitor] | 
20 | COc1ccc(C(=O)NNc2ncnc3c2cnn3-c2cccc(Cl)c2)cc1OC | inconclusive: 2.65% [signal inhibitor] | 
21 | NC(=O)c1cc2ccc(O)cc2oc1=Nc1ccccc1 |  | inconclusive: 0.501 µM [signal inhibitor, full curve]

Row | SMILES | IkBa stabilization activation | Potency
22 | COc1ccc(NC(=O)CCc2nc3c(C)nn(-c4ccc(C)cc4)c3n(C)c2=O)cc1 | inconclusive: -0.886% [signal inhibitor] | 
23 | O=C(CN1C2=NCCN2c2ccccc21)c1ccc(Br)cc1 |  | inconclusive: 3.16 µM [signal inhibitor, full curve]
24 | COC(=O)c1ccccc1NC(=O)c1cnn2c(C(F)F)cc(C3CC3)nc12 | inactive: -1.2% | 
25 | Cc1cccc(N(CC(=O)NCCSCc2cccc(Cl)c2)S(=O)(=O)c2ccccc2)c1C | inconclusive: 4.66% [signal inhibitor] | 
26 | CCn1c(SCC(=O)N2CCc3ccccc3C2)nc2c1c(=O)n(C)c(=O)n2C | inactive: -0.496% | 
27 | COc1ccc(Cl)cc1CNCCSc1nnnn1-c1ccccc1 | inconclusive: 0.12% [signal inhibitor] | 
28 | CC(=O)O[C@@H]1CC[C@]2(C)[C@H]3CC[C@]4(C)[C@H](C[C@H]5CCCC[C@@]54C(C)=O)[C@@H]3CC(=O)[C@@]2(O)C1 | inactive: 0.674% [at 11.4 µM, scaled: untreated 0%, proteasome inhibitor 100%] | 
29 | Cc1ccc(C)c(NC(=O)Cn2cc(C(=O)c3cccs3)c3ccccc32)c1 | inconclusive: 7.11% [signal inhibitor] | 
30 | CCOc1ccccc1NC(=O)C1CCCN1S(=O)(=O)c1ccc2c(c1)C(C)(C)C(=O)N2C (configuration not stated) | inconclusive: 1.5% [signal inhibitor] | 
31 | C=CCn1c(=O)/c(=C/c2ccc(Cl)cc2)s/c1=C(/C#N)c1nnc2n1CCCCC2 | inconclusive: 5.83% [signal inhibitor] | 
32 | CCC(C(=O)NCc1ccc(OC)c(OC)c1)n1nc(C)c2c(C)n(-c3ccc(C)cc3)nc2c1=O (configuration not stated) | inconclusive: 1.72% [signal inhibitor] | 
33 | COc1ccc(Cc2nc3c4cnn(-c5ccccc5F)c4ncn3n2)cc1 | inconclusive: 5.35% [signal inhibitor] | 
34 | COC(=O)c1cc(CSc2nnc(NC3CCCCC3)s2)oc1C | inconclusive: 5.53% [signal inhibitor] | 
35 | CCc1ccccc1NC(=O)CN1CCCN(Cc2cc(C)ccc2C)S1(=O)=O | inconclusive: 0.644% [signal inhibitor] | 
36 | CCc1ccc(NC(=O)CCNS(=O)(=O)c2ccc3c(c2)oc(=O)n3C)cc1 | inconclusive: 2.48% [signal inhibitor] | 
37 | Cc1ccccc1-c1nccc(Nc2ccc(F)cc2)n1 | inactive: 1.74% [at 11.4 µM, scaled: untreated 0%, proteasome inhibitor 100%] | 
38 | COc1cccc(NS(=O)(=O)c2ccc3c(c2)N(C)C(=O)CC(=O)N3C)c1 | inconclusive: 0.122% [signal inhibitor] | 
39 | Nc1ccc(N2CCCCC2)cc1N1CCCCC1 | inconclusive: 7.95% [signal inhibitor] | 
40 | Cc1cc(S(=O)(=O)Nc2ccc(C(=O)O)cc2)c(C)c(S(=O)(=O)c2ccc(Cl)cc2)c1 | inactive: 3.33% | 
41 | COc1ccccc1NC(=O)CN1C(=O)c2ccccc2Sc2ccc(C(=O)N3CCCC3)cc21 | inactive: 12.1% | 
42 | O=C(Nc1nccs1)C(NS(=O)(=O)c1ccc(Br)s1)c1ccccc1 (configuration not stated) | inconclusive: 2.49% [signal inhibitor] | 
